# The supplement of paper PMC10441789
# Some of the results follow. Antibody binding of pooled human sera (four to six donors per pool; dilution not stated) to peptides of the Trypanosoma cruzi antigen TSSA on microarrays. Quantile-normalised fluorescence in arbitrary units, mean of duplicate arrays; higher = more binding. No active / inactive call. The uninfected pools are read here as the healthy donors of the same country. The strongest signals lie near the top of the scale (about 60,000).
# Legend:
# Assay in all cases: antibody binding signal (normalised fluorescence) (arbitrary fluorescence units); higher = stronger serum antibody binding to peptide
# [1] = system: pooled sera of chronic Chagas disease patients, Argentina
# Procedure: (§1)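 Microarray of 15-residue peptides over residues 30-55 of Trypanosoma cruzi TSSAII, each with 1 to 10 substitutions at naturally variable positions, probed with one serum pool per country.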
# [2] = system: pooled sera of chronic Chagas disease patients, Bolivia
# Procedure: as §1
# [3] = system: pooled sera of chronic Chagas disease patients, Brazil
# Procedure: as §1
# [4] = system: pooled sera of chronic Chagas disease patients, Colombia
# Procedure: as §1
# [5] = system: pooled sera of chronic Chagas disease patients, Mexico
# Procedure: as §1
# [6] = system: pooled sera of chronic Chagas disease patients, USA
# Procedure: as §1
# [7] = system: pooled sera of uninfected people, Argentina
# Procedure: as §1
# [8] = system: pooled sera of uninfected people, Bolivia
# Procedure: as §1
# [9] = system: pooled sera of uninfected people, Brazil
# Procedure: as §1
# [10] = system: pooled sera of uninfected people, Colombia
# Procedure: as §1
# [11] = system: pooled sera of uninfected people, Mexico
# Procedure: as §1
# [12] = system: pooled sera of uninfected people, USA
# Procedure: as §1
Sequence,antibody binding signal [1],antibody binding signal [2],antibody binding signal [3],antibody binding signal [4],antibody binding signal [5],antibody binding signal [6],antibody binding signal [7],antibody binding signal [8],antibody binding signal [9],antibody binding signal [10],antibody binding signal [11],antibody binding signal [12]
PSGTDKKAAAGGTPS,1430,287,3800,9460,2600,2310,161,358,799,223,462,223
SGTDKKAATGETPSQ,2080,3020,17900,2180,307,12100,472,237,326,667,885,203
ENKPATGEAPSPPGA,46400,50900,51400,382,585,43000,1040,694,331,162,201,239
SGTDNKAATGEAPSP,24400,39600,43700,247,239,28000,109,548,857,144,141,189
STPPSGKDNKPAAGE,43500,34400,30900,312,36300,14500,504,633,293,282,266,221
SGTENKAATGETPSP,25400,23600,28000,332,225,16000,453,399,147,129,200,1170
SGTENKPATGGTPSP,43400,21300,37200,485,1490,8480,867,1830,509,416,382,183
SGTENKAATGETPSQ,25800,22400,31800,172,223,15600,551,404,159,220,187,160
TDNKTAAGGAPSPSG,286,273,425,4900,484,419,327,259,521,230,412,222
GKENKAAAGETPSPS,5470,1110,11900,8410,8990,17300,402,170,99.4,122,192,1300
ENKAATGETPSPPGA,3180,5290,16000,239,182,13500,153,230,172,123,138,768
TDNKPAAGEAPSPSG,2160,2710,25700,326,134,16900,91.5,239,190,89.4,267,87.3
SGKENKPAAGETPSQ,2470,4010,24800,3440,4570,15500,9210,4970,187,421,719,205
SSTPPSGKDNKAATG,7630,2680,4090,500,17600,2520,301,598,144,205,120,173
GKDKKAATGGAPSQS,911,290,327,1090,2000,1140,220,124,154,230,103,166
TDNKAAAGGAPSPPG,260,332,366,2760,265,742,321,287,222,221,120,207
NKTATGETPSPSGAS,406,1990,4200,221,500,7260,435,814,433,407,199,1560
TPPSGTEKKPATGEA,45500,33400,38700,574,33000,18700,1070,801,1080,280,525,504
SGTENKTATGEAPSP,26600,33100,25300,206,273,24700,375,279,197,279,159,139
GKEKKPAAGGTPSQP,801,206,275,1560,902,1280,153,91.1,479,98.2,121,255
GTDKKAATGGAPSQP,894,424,8030,2740,2560,911,367,416,131,560,215,138
PSGTDNKPAAGGAPS,30200,8520,44800,4570,1050,7530,278,761,1260,441,603,296
EKKTATGGAPSQPGA,1940,579,2620,3020,1230,995,351,859,136,138,340,765
TPPSGKEKKPAAGGT,9910,258,399,1150,32900,791,366,347,475,200,94.8,206
SGKDKKTATGEAPSQ,10800,4050,9410,522,609,14500,213,105,94.3,211,82.6,89.9
